# Data reported in ChEMBL document CHEMBL1157539, “Thousands of chemical starting points for antimalarial lead identification” (Nature, 2010).
# Values joined by “and” are separate entries in the source; they are usually repeats but may differ in a detail not shown here. Equal values may be shown once. Whole data set: some 13,000 compounds, median “IFI” near 4, cut for the highest 2% near 17. Some of the results follow.
# Assay: GSK_TCMDC: Inhibition Frequency Index (IFI). The number of non-kinase HTS assays where a compound showed > 50 % inhibition, expressed as a percentage of the number of such assays in which the compound was tested (-0 is zero)
# Assay type: functional
row,Structure (SMILES),IFI
1,CC(C)CCn1c(Sc2ccc([N+](=O)[O-])cc2C(F)(F)F)nnc1-c1ccccc1Cl,3.52%
2,Cc1cc(OCC2CCCO2)c2cc(NC(=O)C(=O)Nc3ccc4nc(C)cc(OCC5CCCO5)c4c3)ccc2n1 (centres undefined),-0%
3,CC(C)CNc1c2c(nc3cnn(-c4c5c(nc6cn[nH]c46)CCCC5)c13)CCCC2,-0%
4,Cc1cc(NC(=O)Nc2cccc(C#N)c2)c2ccccc2n1,1.54%
5,Cc1onc(-c2ccccc2)c1-c1nc(NC2CCCC(C)C2)no1 (centres undefined),3.08%
6,Cc1nnc2c(NC(=O)NC3CCCC3)cc3cc(-c4ccc(CN5CCCCC5)cc4)ccc3n12,10%
7,O=C(Nc1ccc(Cl)c(C(F)(F)F)c1)N[C@H]1CCN(CCCCCNC(=O)C2CC2c2ccc(Cl)c(Cl)c2)C1 (some centres undefined),12.2%
8,CCOc1cc(C2C(C(=O)OC(C)C)=C(C)NC3=C2C(=O)CC(c2ccc(Cl)cc2)C3)ccc1OC(C)=O (centres undefined),4.76%
9,CCN(CC)CCN(Cc1ccc(-c2ccc(C(F)(F)F)cc2)cc1)C(=O)Cn1c(SCc2ccc(F)c(F)c2F)nc(=O)c2c1CCC2,11.4%
10,CS(=O)(=O)N1CC2(CCN(CCC(NC(=S)Nc3ccccc3)c3ccc(Cl)c(Cl)c3)CC2)c2ccccc21 (centres undefined),4.14%
11,COc1cc2nc(NCCn3cccn3)nc(NCCc3ccccc3)c2cc1OC,4.23%
12,COC(=O)c1cccc(NC(=O)NC2CCN(c3ccnc(Nc4cc(OC)c(OC)c(OC)c4)n3)C2)c1 (centres undefined),4.55%
13,COc1ccc(CNC2CCN(C)CC2)cc1-c1ccc(S(=O)(=O)NCCc2ccccn2)c(C)c1,2.97%
14,CN(C)CCOc1cc(NC(=O)Nc2ccc3c(c2)CCCC3=O)ccc1I,1.43%
15,OC(CNCc1cccc(Oc2ccc(Cl)cc2)c1)c1cc(C(F)(F)F)cc(C(F)(F)F)c1 (centres undefined),0.87%
16,CN(C)c1ccc(-c2csc(C(=O)NCC3CCN(Cc4ccc(C(C)(C)C)cc4)C3)c2)cc1 (centres undefined),14.6%
17,CCOC(=O)C1=C(C)NC2=C(C(=O)C(C(=O)OC)C(C)C2)C1c1cc(Br)c(OCC)c(OC)c1 (centres undefined),1.42%
18,Cc1nc(N)nc(N)c1-c1cc(Cl)c(N)c(Cl)c1,1.46%
19,C[C@H](CNc1ccnc(Nc2ccc3[nH]c(=O)[nH]c3c2)n1)c1ccccc1,0% and 3.45%
20,Cc1nn(-c2ccc(Cl)cc2)c2[nH]c(CN3CCN(c4cccc(Cl)c4)CC3)cc(=O)c12,13%
21,CC(C)c1ccc2[nH]c(C(=O)NC3CCC(N4CCCc5ccc(C#N)cc5C4)CC3)cc2c1 (centres undefined),11.5%
22,CC(=O)Nc1ccc(CNCCc2ccc(NC(=O)c3cc(Cl)cc(Cl)c3)cc2)cc1,3.57%

row,Structure (SMILES),IFI
1,CN1CCN(c2cc(-c3cccnc3)nc(-c3ccncc3)n2)CC1,1.52%
2,CCn1ccc2c(N3CCCC3=O)cc(C(=O)N[C@@H](Cc3ccccc3)[C@H](O)CNCc3cccc(OC)c3)cc21,2.08%
3,O=C(N[C@H]1CCN(Cc2ccc(OC3CCN(Cc4ccccc4)CC3)c(Br)c2)C1)c1ccc(Cl)c(Cl)c1,10%
4,O=C(Nc1ccc(N2CCCN(Cc3cccc(F)c3)CC2)cc1)c1ccc(F)cc1,8.82%
5,Oc1cc2c(cc1CN1CCN(Cc3ccccc3F)CC1)CCC2,1.96%
6,CCC(C)(C)c1ccc(OCCCC(=O)Nc2ccc(Cl)c([N+](=O)[O-])c2)c(C(C)(C)CC)c1,3.82%
7,O=C(CCc1c[nH]cn1)Nc1ccc(-c2cccc(-c3nc4ccccc4[nH]3)c2)cc1,0.88%
8,COc1cc(OC)c(NC(=O)Nc2ccnc3ccccc23)cc1Cl,0.72%
9,CCOC(=O)c1ccc(NC(=O)Nc2ccc(-c3cccc(-c4nc5cccc(C)c5[nH]4)c3)cc2)cc1,7%
10,Cc1c(Cc2ccccc2)c(=O)oc2c(C)c3c(cc12)CN(CC(C)c1ccccc1)CO3 (centres undefined),5.17%
11,CC(C)c1ccc(CN2CCC(CNC(=O)c3cc(-c4cccc(Cl)c4)cs3)C2)cc1 (centres undefined),14%
12,CCCCN(CCCC)/C(=N/c1cccc(Cl)c1Cl)Nc1ccc(C#N)cc1O,7.14%
13,CN(C)CCN(C)Cc1cccc(-c2ccc3c(Nc4cc(O)c(Cl)cc4F)ccnc3c2)c1,7.58%
14,CS(=O)(=O)Cc1ccc(Nc2ncc(Cl)c(Nc3cccnc3C(N)=O)n2)cc1,8%
15,CC1Cc2ccccc2N1S(=O)(=O)c1cc(OCC(F)(F)F)ccc1OCC(F)(F)F (centres undefined),4.55%
16,Cc1cc(CNCCCCCCCNCc2ccc(-c3ccccc3)cc2)ccc1O,6.62%
17,Cc1cccc(CNc2nc(C)cc(N[C@@H](CC(C)C)C(=O)NCc3cccc(F)c3)n2)c1,9.52%
18,O=C(/C=C/c1ccc(Cl)c(Cl)c1)NCCCCCN1CCN(C(=O)Nc2ccc(OC(F)F)cc2)CC1,8.05%
19,COc1ccc(CNCCc2cccs2)cc1-c1ccc(S(=O)(=O)NCCN2CCCC2)cc1,6.93%
20,FC(F)(F)COc1ccc(CCNCCCCNCCc2ccc(OCC(F)(F)F)c3ccccc23)c2ccccc12,20.3%
21,CN(C)CCn1c(N)c(-c2nc3ccccc3s2)c2nc(C#N)c(C#N)nc21,3.92%
22,CCc1c[nH]c2c(N3CCCS3(=O)=O)cc(C(=O)N[C@@H](Cc3ccccc3)[C@H](O)CNC(C)(C)c3cccc(C(F)(F)F)c3)cc12,4.38%
